Reference: PMC9911399, “Two distinct binding modes provide the RNA-binding protein RbFox with extraordinary sequence specificity”
Changes are numbered by the printed parent chain; changes in the protein carry UniProt numbers. Some of the results follow.

T1: RBFOX1 RRM (Homo sapiens, UniProt Q9NWB1 109-208)
T1 sequence: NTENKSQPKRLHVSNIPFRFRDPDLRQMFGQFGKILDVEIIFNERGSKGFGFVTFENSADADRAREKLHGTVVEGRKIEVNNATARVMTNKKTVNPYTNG

B1: AGAUAGG (DNA:RNA)
RNA: GGGAGACCGGAAUUCAGAUUGUCCAGAUAGGUUAAAUCCCGUCGUAGCCACCA
DNA 1: CAATCTGAATTCCGGTCTCCC
DNA 2: TGGTGGCTACGACGGGATT
B2: AUAAAUU (DNA:RNA)
RNA: B1 RNA with G26U, U28A, G30U, G31U
DNA 1: CAATCTGAATTCCGGTCTCCC
DNA 2: TGGTGGCTACGACGGGATT
B3: UACUAUA (DNA:RNA)
RNA: B1 RNA with A25U, G26A, A27C, G30U, G31A
DNA 1: CAATCTGAATTCCGGTCTCCC
DNA 2: TGGTGGCTACGACGGGATT
B4: GAGCUCU (DNA:RNA)
RNA: GGGAGACCGGAAUUCAGAUUGUCCGAGCUCUUUAAAUCCCGUCGUAGCCACCA
DNA 1: CAATCTGAATTCCGGTCTCCC
DNA 2: TGGTGGCTACGACGGGATT
B5: UUCAGAU (DNA:RNA)
RNA: B4 RNA with G25U, A26U, G27C, C28A, U29G, C30A
DNA 1: CAATCTGAATTCCGGTCTCCC
DNA 2: TGGTGGCTACGACGGGATT
B6: GCAUAUC (DNA:RNA)
RNA: B1 RNA with A25G, G26C, G30U, G31C
DNA 1: CAATCTGAATTCCGGTCTCCC
DNA 2: TGGTGGCTACGACGGGATT
B7: CGAAAGC (DNA:RNA)
RNA: B1 RNA with A25C, U28A, G31C
DNA 1: CAATCTGAATTCCGGTCTCCC
DNA 2: TGGTGGCTACGACGGGATT
B8: ACGGAUC (DNA:RNA)
RNA: B1 RNA with G26C, A27G, U28G, G30U, G31C
DNA 1: CAATCTGAATTCCGGTCTCCC
DNA 2: TGGTGGCTACGACGGGATT
B9: UCUUCGU (DNA:RNA)
RNA: B1 RNA with A25U, G26C, A27U, A29C, G31U
DNA 1: CAATCTGAATTCCGGTCTCCC
DNA 2: TGGTGGCTACGACGGGATT
B10: GUUUCGU (DNA:RNA)
RNA: B1 RNA with A25G, G26U, A27U, A29C, G31U
DNA 1: CAATCTGAATTCCGGTCTCCC
DNA 2: TGGTGGCTACGACGGGATT
B11: CCCGAGA (DNA:RNA)
RNA: B1 RNA with A25C, G26C, A27C, U28G, G31A
DNA 1: CAATCTGAATTCCGGTCTCCC
DNA 2: TGGTGGCTACGACGGGATT
B12: AAAUAGC (DNA:RNA)
RNA: B1 RNA with G26A, G31C
DNA 1: CAATCTGAATTCCGGTCTCCC
DNA 2: TGGTGGCTACGACGGGATT
B13: GCGGCGC (DNA:RNA)
RNA: B4 RNA with A26C, C28G, U29C, C30G, U31C
DNA 1: CAATCTGAATTCCGGTCTCCC
DNA 2: TGGTGGCTACGACGGGATT
B14: UCUCCGA (DNA:RNA)
RNA: B1 RNA with A25U, G26C, A27U, U28C, A29C, G31A
DNA 1: CAATCTGAATTCCGGTCTCCC
DNA 2: TGGTGGCTACGACGGGATT
B15: GGUUAGG (DNA:RNA)
RNA: B1 RNA with A25G, A27U
DNA 1: CAATCTGAATTCCGGTCTCCC
DNA 2: TGGTGGCTACGACGGGATT
B16: CACUAUG (DNA:RNA)
RNA: B1 RNA with A25C, G26A, A27C, G30U
DNA 1: CAATCTGAATTCCGGTCTCCC
DNA 2: TGGTGGCTACGACGGGATT
B17: UAUAUAU (DNA:RNA)
RNA: B4 RNA with G25U, G27U, C28A, C30A
DNA 1: CAATCTGAATTCCGGTCTCCC
DNA 2: TGGTGGCTACGACGGGATT
B18: CUUGUAA (DNA:RNA)
RNA: B4 RNA with G25C, A26U, G27U, C28G, C30A, U31A
DNA 1: CAATCTGAATTCCGGTCTCCC
DNA 2: TGGTGGCTACGACGGGATT
B19: CGGCGCU (DNA:RNA)
RNA: B4 RNA with G25C, A26G, U29G
DNA 1: CAATCTGAATTCCGGTCTCCC
DNA 2: TGGTGGCTACGACGGGATT
B20: CAGUAAU (DNA:RNA)
RNA: B4 RNA with G25C, C28U, U29A, C30A
DNA 1: CAATCTGAATTCCGGTCTCCC
DNA 2: TGGTGGCTACGACGGGATT
B21: UUAGCUG (DNA:RNA)
RNA: B1 RNA with A25U, G26U, U28G, A29C, G30U
DNA 1: CAATCTGAATTCCGGTCTCCC
DNA 2: TGGTGGCTACGACGGGATT
B22: ACCCGGG (DNA:RNA)
RNA: B1 RNA with G26C, A27C, U28C, A29G
DNA 1: CAATCTGAATTCCGGTCTCCC
DNA 2: TGGTGGCTACGACGGGATT
B23: CCACUGC (DNA:RNA)
RNA: B1 RNA with A25C, G26C, U28C, A29U, G31C
DNA 1: CAATCTGAATTCCGGTCTCCC
DNA 2: TGGTGGCTACGACGGGATT
B24: GCAUGUG (DNA:RNA)
RNA: B1 RNA with A25G, G26C, A29G, G30U
DNA 1: CAATCTGAATTCCGGTCTCCC
DNA 2: TGGTGGCTACGACGGGATT
B25: UUAGCUA (DNA:RNA)
RNA: B1 RNA with A25U, G26U, U28G, A29C, G30U, G31A
DNA 1: CAATCTGAATTCCGGTCTCCC
DNA 2: TGGTGGCTACGACGGGATT
B26: ACUCGGG (DNA:RNA)
RNA: B1 RNA with G26C, A27U, U28C, A29G
DNA 1: CAATCTGAATTCCGGTCTCCC
DNA 2: TGGTGGCTACGACGGGATT
B27: UUAAAUG (DNA:RNA)
RNA: B1 RNA with A25U, G26U, U28A, G30U
DNA 1: CAATCTGAATTCCGGTCTCCC
DNA 2: TGGTGGCTACGACGGGATT
B28: AGUUAUC (DNA:RNA)
RNA: B1 RNA with A27U, G30U, G31C
DNA 1: CAATCTGAATTCCGGTCTCCC
DNA 2: TGGTGGCTACGACGGGATT
B29: GUUACUG (DNA:RNA)
RNA: B1 RNA with A25G, G26U, A27U, U28A, A29C, G30U
DNA 1: CAATCTGAATTCCGGTCTCCC
DNA 2: TGGTGGCTACGACGGGATT
B30: GUGUCAU (DNA:RNA)
RNA: B4 RNA with A26U, C28U, U29C, C30A
DNA 1: CAATCTGAATTCCGGTCTCCC
DNA 2: TGGTGGCTACGACGGGATT
B31: UUAAUCC (DNA:RNA)
RNA: B4 RNA with G25U, A26U, G27A, C28A, U31C
DNA 1: CAATCTGAATTCCGGTCTCCC
DNA 2: TGGTGGCTACGACGGGATT

What follows are binders tested against T1, RBFOX1 RRM (assay: EMSA; HiTS-Eq, 1 nM pool, 10 min; buffer printed only for the single-RNA assays: 10 mM Tris pH 7.5, 150 mM NaCl, 3.4 mM EDTA, 0.001% NP-40, 30 C). Settings: tags: His6 N-terminal (pET28a); label: 5' 32P.
Method in brief: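 Purified wild-type or mutant RbFox RRM at increasing concentrations was equilibrated with 1 nM of 5′-radiolabelled RNA carrying 7 randomized nucleotides for 10 min in 50 µL. Unbound RNA was separated by 8% native PAGE and sequenced. Relative association constants came from read-count changes of each RNA species compared with the control reaction, normalised to the cognate motif.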
B1 was tested, and the binding signal was 0.0145 KA relative to UGCAUGU. With B2 the binding signal was 0.000906 KA relative to UGCAUGU. For B3, the binding signal was 0.00337 KA relative to UGCAUGU. In the case of B4, the binding signal is reported as 0.0127 KA relative to UGCAUGU. B5 was tested, and the binding signal was 0.0118 KA relative to UGCAUGU. With B6 the binding signal was 0.00606 KA relative to UGCAUGU. B7 was tested, and the binding signal was 0.00459 KA relative to UGCAUGU. With B8 the binding signal was 0.00949 KA relative to UGCAUGU. For B9, the binding signal was 0.016 KA relative to UGCAUGU. With B10 the binding signal was 0.0212 KA relative to UGCAUGU. In the case of B11, the binding signal is reported as 0.0032 KA relative to UGCAUGU. B12 was tested, and the binding signal was 0.00215 KA relative to UGCAUGU. In the case of B13, the binding signal is reported as 0.0236 KA relative to UGCAUGU. For B14, the binding signal was 0.0139 KA relative to UGCAUGU. B15 was tested, and the binding signal was 0.00756 KA relative to UGCAUGU. For B16, the binding signal was 0.00229 KA relative to UGCAUGU. B17 was tested, and the binding signal was 0.00311 KA relative to UGCAUGU. With B18 the binding signal was 0.00804 KA relative to UGCAUGU. For B19, the binding signal was 0.0147 KA relative to UGCAUGU. For B20, the binding signal was 0.00269 KA relative to UGCAUGU. With B21 the binding signal was 0.0158 KA relative to UGCAUGU. In the case of B22, the binding signal is reported as 0.00858 KA relative to UGCAUGU. In the case of B23, the binding signal is reported as 0.00554 KA relative to UGCAUGU. With B24 the binding signal was 0.8 KA relative to UGCAUGU. With B25 the binding signal was 0.00954 KA relative to UGCAUGU. B26 was tested, and the binding signal was 0.00646 KA relative to UGCAUGU. B27 was tested, and the binding signal was 0.0123 KA relative to UGCAUGU. B28 was tested, and the binding signal was 0.00773 KA relative to UGCAUGU. For B29, the binding signal was 0.0187 KA relative to UGCAUGU. With B30 the binding signal was 0.0129 KA relative to UGCAUGU. For B31, the binding signal was 0.00387 KA relative to UGCAUGU.
